From patent US20230016112A1 (IBIO, published 2023)

T1: full-length CD25 (human, UniProt P01589 22-186, limits assumed)
T1 construct: The assays used soluble 'full-length CD25'; also called Hu CD25; IL-2 receptor alpha chain
T1 chain: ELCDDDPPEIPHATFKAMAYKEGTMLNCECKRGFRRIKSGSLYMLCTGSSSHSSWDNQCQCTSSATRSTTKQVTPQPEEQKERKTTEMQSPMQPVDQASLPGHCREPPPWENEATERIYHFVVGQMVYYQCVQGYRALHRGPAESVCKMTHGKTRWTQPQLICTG

B1: YU391-B12 (antibody)
scFv: QMQLVQSGAEVKKPGSSVKVSCKASGGTFSSYAISWVRQAPGQGLEWMGGIIPIFGTANYAQKFQGRVTITADESTSTAYMELSSLRSEDTAVYYCAREMYYYYGMDVWGQGTTVTVSS[letters of about 100 residues not shown]
notes: Tested as full-length human IgG1
B2: YU389-B11 (antibody)
scFv: PGSSVKVSCKASGGTFSSYAISWVRQAPGQGLEWMGGIIPIFGTANYAQKFQGRVTITADESTSTAYMELSSLRSEDTAVYYCAREMYYYYGMDVWGQGTTVTVSS[letters of about 100 residues not shown]FGQGTKLEIK
notes: as for B1
B3: YU394-D08 (antibody)
scFv: QVQLGESGAEVKKPGSSVKVSCKASGGTFSSYAISWVRQAPGQGLEWMGWISAYNGNTNYAQKLQGRVTMTTDTSTSTAYMELRSLRSDDTAVYYCAREPLRYYYYYGMDVWGQGTTVTVSS[letters of about 100 residues not shown]
notes: as for B1

Target: T1, full-length CD25
Assay: Octet biolayer interferometry, human IgG1 against CD25
B1 gave a Kd of 45.8 nM. B2 gave a Kd of 142 nM. B3 was tested, and the Kd was 44.3 nM.
